In PubChem BioAssay AID504374 (National Center for Advancing Translational Sciences (NCATS), 2011):
The whole screen tested about 1,500 compounds, of which about 100 (6.7%) were called active. About 7% were inconclusive and are not listed. The call rests on the fitted dose curve; in most records, active means well fitted inhibition curve with a large enough effect; inconclusive means small, poorly fitted or top-dose-only effect, or effect the other way; inactive means flat fitted curve, though single readings scatter. Some of the results follow.

target: Runt-related transcription factor 1 (Homo sapiens) + Core-binding factor subunit beta (Homo sapiens) (UniProt Q01196+Q13951); test: qHTS Assay for Compounds Blocking the Interaction Between CBF-beta and RUNX1 for the Treatment of Acute Myeloid Leukemia: Hit Validation; details: AlphaScreen CBFb-His/RUNX1-biotin binding; series mostly up to 59.8 µM; activity, negative = inhibition: at the top concentration; further: nearly all actives have a fitted effect of over 60% in size
Chain of UniProt Q01196 (Q01196 whole entry, looked up): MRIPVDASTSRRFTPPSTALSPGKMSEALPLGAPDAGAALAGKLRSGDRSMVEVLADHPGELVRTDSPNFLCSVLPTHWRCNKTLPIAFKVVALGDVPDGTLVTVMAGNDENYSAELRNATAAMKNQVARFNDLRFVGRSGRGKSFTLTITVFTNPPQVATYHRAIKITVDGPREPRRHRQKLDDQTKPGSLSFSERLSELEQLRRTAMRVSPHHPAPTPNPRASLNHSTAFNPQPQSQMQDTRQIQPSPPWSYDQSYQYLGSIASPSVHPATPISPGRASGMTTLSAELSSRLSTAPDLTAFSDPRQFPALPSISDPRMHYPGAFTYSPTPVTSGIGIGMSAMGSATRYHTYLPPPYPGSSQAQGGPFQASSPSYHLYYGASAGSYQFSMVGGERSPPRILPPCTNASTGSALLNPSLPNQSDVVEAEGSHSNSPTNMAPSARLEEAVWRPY
Chain of UniProt Q01196 (Q13951 whole entry, looked up): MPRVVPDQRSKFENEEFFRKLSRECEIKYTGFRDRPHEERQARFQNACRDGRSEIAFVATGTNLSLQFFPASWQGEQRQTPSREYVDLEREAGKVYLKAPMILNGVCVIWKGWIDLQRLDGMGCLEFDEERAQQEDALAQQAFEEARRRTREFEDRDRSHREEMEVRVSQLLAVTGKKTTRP
Summary of the method: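 AlphaScreen proximity assay: His-tagged CBF-beta and biotinylated RUNX1 (30 nM each) preincubated 20 min, then compound 15 min, then nickel and streptavidin beads 90 min, all at room temperature; signal read at […]em 440 nm.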
On the % scale 0 is the no-effect control and ±100 the full control effect; potency means the concentration at half of the fitted maximal effect.

activity, negative = inhibition, inactive:
O=C(CN1CCCC1)Nc1c(C(=O)C2CC2)oc2ccccc12 -0.446%
CC1=NN(c2nc3ccccc3s2)C(O)(C(F)(F)F)C1 (stereo not given) -0.882%
COc1cccc(NC(=O)C(=O)NCCc2ccc(F)cc2)c1 5.31%
Nc1ncnc2c1ncn2C1OC(CO)C(O)C1N (stereo not given) -0.781%
Cc1ccc(C(=O)COc2cc(C)nc3nncn23)cc1 -3.97%
Cc1ccnn1CC(=O)N/N=C/c1cn[nH]c1-c1ccc(F)cc1 -5.89%
COc1cccc(Nc2ncc(C#N)c(N)n2)c1 -3.11%
O=C(NNC(=O)C(Cl)Cl)c1cnn(-c2ccccc2)c1C(F)(F)F -4.25%
CC(C)N(Cc1ccccc1)C(=O)c1ccc2nsnc2c1 -10.3%
Cc1nc(-c2ccc3c(c2)CCC(=O)N3)cs1 -3.11%
O=C(N/N=C/C1=Cc2ccccc2OC1)c1ccncc1 5.44%
COc1ccc(C(=O)NC(=S)NNC(=O)c2c(-c3ccccc3)noc2C)cc1OC -18.2%
CCOC(=O)CSc1nnc(Cn2nnc3ccccc32)n1-c1ccc(F)cc1 -4.39%
COc1cc(OC)c(OC)cc1/C=N/NC(=O)CCc1c(C)n[nH]c1C -2.77%
CC(C)(C)Sc1ccc([N+](=O)[O-])cc1C(=O)Nc1ccncc1 -1.77%
O=C(Oc1c(-c2ccccc2)c(=O)n2c3c(cccc13)CC2)c1ccc(F)cc1 5.18%
CC(=O)/C=C(\C)N=Nc1c(O)[nH]c2ccccc12 -1.25%
O=C(CN1CCN(S(=O)(=O)c2ccc(Cl)s2)CC1)N1CCOCC1 3.13%
CC(C)(C)c1csc(Sc2ccc([N+](=O)[O-])cn2)n1 3%
COCc1cc(=O)n2[nH]c(-c3ccco3)cc2n1 -12.9%
CC(C)COC(=O)NC1c2ccccc2Oc2ccccc21 3.64%
Cn1c(NC(=O)c2ccc(F)cc2)c(-c2cccs2)c(=O)c2ccccc21 4.67%
COc1ccc(-c2nnsc2N2C(=O)c3ccccc3C2=O)cc1 -3.86%
O=C(Cc1n[nH]c(=O)c2ccccc12)OCc1c(Cl)cccc1Cl -14.4%
COc1ccc(OS(=O)(=O)c2c(C)noc2C)cc1 -2.38%
NS(=O)(=O)c1ccc(N/N=C/c2ccc(C(=O)O)cc2)c([N+](=O)[O-])c1 -4.55%
CC(C)(C)c1ccc(NC(=O)c2ccsc2)cc1 6.68%
COC(=O)c1ccc(C(=O)NN)cc1 -0.261%
CCOC(=O)CC(=O)CSc1nc(CC)c(C)cc1C#N -13.7%
Cn1c(=O)c2c(nc(N3CCOCC3)n2C/C=C/c2ccccc2)n(C)c1=O -3.33%
COc1cc(NC(=S)NCCO)c(OC)cc1Cl -1.84%
O=C(Nc1ccc(Cl)cc1)N1CCCC(Cn2cccc2)C1 (stereo not given) -8.78%
Clc1ccc(CSc2nncn2-c2ccc3c(c2)OCCO3)cc1 3.74%
COc1ccccc1C1CCN(C(=O)c2ccco2)CC1 -1.76%
CCCSc1sc(C(=O)OC)c(-c2cccs2)c1C#N 4.32%
COc1cc(NC(N)=S)c(OC)cc1Cl -8.15%
CNC(=O)COC(=O)c1ccc(Cl)c(S(N)(=O)=O)c1 -5.94%
COc1ccccc1N1C(=O)[C@@H]2[C@H](C1=O)[C@H](C(=O)c1ccc(OC(C)=O)cc1)N1N=CC=C[C@@H]21 -8.37%
CCOc1ccc(/C=C2\CCc3ccccc3C2=O)cc1 -3.3%
CCC1(CC)Nc2ccccc2C(=O)N1c1ccc(OC)cc1 -2.48%
O=C(Nc1ccc(C(F)(F)F)cn1)Nc1cccs1 0.421%
Cc1nn(-c2ccccc2)nc1-c1nnc(-c2ccc(C(F)(F)F)cc2)o1 -14.5%
COc1ccccc1C1CCN(C(=O)c2cccs2)CC1 1.84%
CCN(CC)C(=N)/C(C#N)=N/Nc1ccc(C)cc1 -12.6%
Clc1c(Cl)c(Cl)c2n[nH]nc2c1Cl -6.47%
CC(=O)Nc1cccc(OCCCNC(=O)c2cccc3ccccc23)c1 -4.29%
CCCc1c(NC(=O)Nc2ccc(F)cc2)cnn1-c1ccccc1 -6.62%
CC(=O)Nc1ccc(S(=O)(=O)Nc2ccc(C(=O)NCC(=O)O)cc2)cc1 4.22%
CC12CCC(C(=Nc3ccc(N=C4C(=O)C5(C)CCC4C5(C)C)cc3)C1=O)C2(C)C -27.3%
CCC(CC)NCCOC(=O)c1ccc([N+](=O)[O-])cc1 -1.76%
CCC(C)c1ccc(OCc2ccc(C(=O)OC)o2)cc1 (stereo not given) 39.2%
O=[N+]([O-])c1ccc(Sc2ccccn2)nc1 -3.29%
CCOC(=O)c1cn2nc(Oc3ccccc3)ccc2n1 -1.38%
[O-][N+]12CCCCC1CCCC2CO (stereo not given) -7.8%
O=C(O)c1ccccc1C(=O)Nc1ccc(-n2ccc(C(F)(F)F)n2)cc1 -0.393%
Cc1ccc(Cl)cc1NC(=S)NN -9.41%
CC(=O)Nc1nnc(CSCc2ccc(F)cc2)s1 -1.58%
CCOC(=O)COc1nc2c(c(-c3ccco3)c1C#N)CCc1ccccc1-2 -2.28%
CCn1c2ccccc2c2cc(NC(=O)c3ccccc3-c3ccccc3C(=O)O)ccc21 10%
Cc1nc([N+](=O)[O-])cn1CCC#N 4.03%
COc1ccc(C(=O)CN2CCN(c3cc(C)nc4ccccc34)CC2)cc1 -4.52%
COC(=O)Cc1[nH]c(=O)[nH]c1C(=O)OC -2.87%
CCn1c(NC(=O)c2ccccc2F)c(-c2cccs2)c(=O)c2ccccc21 -8%
COC(=O)CC1C(=O)NC(C)=C1C(=O)OC (stereo not given) -12.4%
OCc1nc2ccc(Cl)cc2[nH]1 -1.6%
COC(=O)c1cc(S(=O)(=O)Nc2nn(C)c3cccc(F)c23)oc1C -6.39%
Cc1ccc(/C=N/n2c(-c3ccncc3)n[nH]c2=S)s1 7.78%
COc1ccc(Cc2c(O)nc(SCC(=O)N3CCOCC3)[nH]c2=O)cc1 -4.91%
NC(=O)C1CCN(C(=S)NC2CC3C=CC2C3)CC1 (stereo not given) 2.81%

Potency, active:
CC1=NN(c2ccccc2)C(=O)/C1=C/C=C/c1ccc(N(C)C)cc1 1.12 µM
c1ccc(-c2nnc(-c3ccccn3)nc2NC2CCCCC2)cc1 2.24 µM
NCC(=O)Nc1ccc(Cl)cc1C(=O)c1ccc[nH]1 3.55 µM
Cc1ccc(C)c(NC(=S)N(CCN(C)C)C(C)c2ccccn2)c1 (stereo not given) 4.86 µM
CC(=O)Oc1cc(-c2coc3cc(OC(C)=O)c(OC(C)=O)c(OC(C)=O)c3c2=O)cc(OC(C)=O)c1OC(C)=O 1 µM
Nc1ccc(N)c(C(=O)O)c1 0.794 µM
